{"source": "paper PMC9911399", "about": "“Two distinct binding modes provide the RNA-binding protein RbFox with extraordinary sequence specificity”", "binders": {"B1": {"name": "AAGCUCG (DNA:RNA)", "RNA": "GGGAGACCGGAAUUCAGAUUGUCCAAGCUCGUUAAAUCCCGUCGUAGCCACCA", "DNA 1": "CAATCTGAATTCCGGTCTCCC", "DNA 2": "TGGTGGCTACGACGGGATT"}, "B2": {"name": "GCGAUAA (DNA:RNA)", "RNA": "B1 RNA with A25G, A26C, C28A, C30A, G31A", "DNA 1": "CAATCTGAATTCCGGTCTCCC", "DNA 2": "TGGTGGCTACGACGGGATT"}, "B3": {"name": "ACGAUGC (DNA:RNA)", "RNA": "B1 RNA with A26C, C28A, C30G, G31C", "DNA 1": "CAATCTGAATTCCGGTCTCCC", "DNA 2": "TGGTGGCTACGACGGGATT"}, "B4": {"name": "CGAUUAU (DNA:RNA)", "RNA": "B1 RNA with A25C, A26G, G27A, C28U, C30A, G31U", "DNA 1": "CAATCTGAATTCCGGTCTCCC", "DNA 2": "TGGTGGCTACGACGGGATT"}, "B5": {"name": "UCGAGAU (DNA:RNA)", "RNA": "B1 RNA with A25U, A26C, C28A, U29G, C30A, G31U", "DNA 1": "CAATCTGAATTCCGGTCTCCC", "DNA 2": "TGGTGGCTACGACGGGATT"}, "B6": {"name": "UAAGGGG (DNA:RNA)", "RNA": "B1 RNA with A25U, G27A, C28G, U29G, C30G", "DNA 1": "CAATCTGAATTCCGGTCTCCC", "DNA 2": "TGGTGGCTACGACGGGATT"}, "B7": {"name": "CGUGGUU (DNA:RNA)", "RNA": "GGGAGACCGGAAUUCAGAUUGUCCCGUGGUUUUAAAUCCCGUCGUAGCCACCA", "DNA 1": "CAATCTGAATTCCGGTCTCCC", "DNA 2": "TGGTGGCTACGACGGGATT"}, "B8": {"name": "UGCGGCU (DNA:RNA)", "RNA": "B7 RNA with C25U, U27C, U30C", "DNA 1": "CAATCTGAATTCCGGTCTCCC", "DNA 2": "TGGTGGCTACGACGGGATT"}, "B9": {"name": "CACACCU (DNA:RNA)", "RNA": "B1 RNA with A25C, G27C, C28A, U29C, G31U", "DNA 1": "CAATCTGAATTCCGGTCTCCC", "DNA 2": "TGGTGGCTACGACGGGATT"}, "B10": {"name": "GCGUCGG (DNA:RNA)", "RNA": "B1 RNA with A25G, A26C, C28U, U29C, C30G", "DNA 1": "CAATCTGAATTCCGGTCTCCC", "DNA 2": "TGGTGGCTACGACGGGATT"}, "B11": {"name": "UAGAGGG (DNA:RNA)", "RNA": "B1 RNA with A25U, C28A, U29G, C30G", "DNA 1": "CAATCTGAATTCCGGTCTCCC", "DNA 2": "TGGTGGCTACGACGGGATT"}, "B12": {"name": "CACUUGC (DNA:RNA)", "RNA": "B1 RNA with A25C, G27C, C28U, C30G, G31C", "DNA 1": "CAATCTGAATTCCGGTCTCCC", "DNA 2": "TGGTGGCTACGACGGGATT"}, "B13": {"name": "CUUUGCC (DNA:RNA)", "RNA": "B7 RNA with G26U, G28U, U30C, U31C", "DNA 1": "CAATCTGAATTCCGGTCTCCC", "DNA 2": "TGGTGGCTACGACGGGATT"}, "B14": {"name": "GCCCAGU (DNA:RNA)", "RNA": "B1 RNA with A25G, A26C, G27C, U29A, C30G, G31U", "DNA 1": "CAATCTGAATTCCGGTCTCCC", "DNA 2": "TGGTGGCTACGACGGGATT"}, "B15": {"name": "CUCCAGA (DNA:RNA)", "RNA": "B1 RNA with A25C, A26U, G27C, U29A, C30G, G31A", "DNA 1": "CAATCTGAATTCCGGTCTCCC", "DNA 2": "TGGTGGCTACGACGGGATT"}, "B16": {"name": "CAGUUCU (DNA:RNA)", "RNA": "B1 RNA with A25C, C28U, G31U", "DNA 1": "CAATCTGAATTCCGGTCTCCC", "DNA 2": "TGGTGGCTACGACGGGATT"}, "B17": {"name": "GCACCAG (DNA:RNA)", "RNA": "B1 RNA with A25G, A26C, G27A, U29C, C30A", "DNA 1": "CAATCTGAATTCCGGTCTCCC", "DNA 2": "TGGTGGCTACGACGGGATT"}, "B18": {"name": "GCCGAUG (DNA:RNA)", "RNA": "B7 RNA with C25G, G26C, U27C, G29A, U31G", "DNA 1": "CAATCTGAATTCCGGTCTCCC", "DNA 2": "TGGTGGCTACGACGGGATT"}, "B19": {"name": "CUUUAAA (DNA:RNA)", "RNA": "B7 RNA with G26U, G28U, G29A, U30A, U31A", "DNA 1": "CAATCTGAATTCCGGTCTCCC", "DNA 2": "TGGTGGCTACGACGGGATT"}, "B20": {"name": "AGGUUCU (DNA:RNA)", "RNA": "B1 RNA with A26G, C28U, G31U", "DNA 1": "CAATCTGAATTCCGGTCTCCC", "DNA 2": "TGGTGGCTACGACGGGATT"}, "B21": {"name": "CCCAGAA (DNA:RNA)", "RNA": "B7 RNA with G26C, U27C, G28A, U30A, U31A", "DNA 1": "CAATCTGAATTCCGGTCTCCC", "DNA 2": "TGGTGGCTACGACGGGATT"}, "B22": {"name": "ACCGUUU (DNA:RNA)", "RNA": "B7 RNA with C25A, G26C, U27C, G29U", "DNA 1": "CAATCTGAATTCCGGTCTCCC", "DNA 2": "TGGTGGCTACGACGGGATT"}, "B23": {"name": "CGAUGAU (DNA:RNA)", "RNA": "B7 RNA with U27A, G28U, U30A", "DNA 1": "CAATCTGAATTCCGGTCTCCC", "DNA 2": "TGGTGGCTACGACGGGATT"}, "B24": {"name": "GGUAGUA (DNA:RNA)", "RNA": "B7 RNA with C25G, G28A, U31A", "DNA 1": "CAATCTGAATTCCGGTCTCCC", "DNA 2": "TGGTGGCTACGACGGGATT"}, "B25": {"name": "UAAGCAU (DNA:RNA)", "RNA": "B7 RNA with C25U, G26A, U27A, G29C, U30A", "DNA 1": "CAATCTGAATTCCGGTCTCCC", "DNA 2": "TGGTGGCTACGACGGGATT"}, "B26": {"name": "CGGGGGU (DNA:RNA)", "RNA": "B7 RNA with U27G, U30G", "DNA 1": "CAATCTGAATTCCGGTCTCCC", "DNA 2": "TGGTGGCTACGACGGGATT"}, "B27": {"name": "UUAUUGA (DNA:RNA)", "RNA": "B1 RNA with A25U, A26U, G27A, C28U, C30G, G31A", "DNA 1": "CAATCTGAATTCCGGTCTCCC", "DNA 2": "TGGTGGCTACGACGGGATT"}, "B28": {"name": "UUUUACU (DNA:RNA)", "RNA": "B7 RNA with C25U, G26U, G28U, G29A, U30C", "DNA 1": "CAATCTGAATTCCGGTCTCCC", "DNA 2": "TGGTGGCTACGACGGGATT"}, "B29": {"name": "UGCACUG (DNA:RNA)", "RNA": "B7 RNA with C25U, U27C, G28A, G29C, U31G", "DNA 1": "CAATCTGAATTCCGGTCTCCC", "DNA 2": "TGGTGGCTACGACGGGATT"}, "B30": {"name": "GAGUCUG (DNA:RNA)", "RNA": "B1 RNA with A25G, C28U, U29C, C30U", "DNA 1": "CAATCTGAATTCCGGTCTCCC", "DNA 2": "TGGTGGCTACGACGGGATT"}, "B31": {"name": "GUCGGCG (DNA:RNA)", "RNA": "B1 RNA with A25G, A26U, G27C, C28G, U29G", "DNA 1": "CAATCTGAATTCCGGTCTCCC", "DNA 2": "TGGTGGCTACGACGGGATT"}}, "note": "Residue numbers refer to the chain shown, from its start. Some of the results follow.", "data": [{"target": "T1, RBFOX1 RRM RbFoxmut (Fox-RRM*) (Homo sapiens, UniProt Q9NWB1 109-208, R118D;E147R;N151S;E152T)", "T1 sequence": "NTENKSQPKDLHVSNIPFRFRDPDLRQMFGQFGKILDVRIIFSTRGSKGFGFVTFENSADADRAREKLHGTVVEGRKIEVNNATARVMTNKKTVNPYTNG", "assay": "EMSA; HiTS-Eq, 1 nM pool, 10 min; buffer printed only for the single-RNA assays: 10 mM Tris pH 7.5, 150 mM NaCl, 3.4 mM EDTA, 0.001% NP-40, 30 C", "details": "tags: His6 N-terminal (pET28a); label: 5' 32P", "procedure,_shortened": "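Purified RbFox RRM (wild type or mutant) was equilibrated for 10 min in 50 µL with 1 nM of a 5′-radiolabelled pool of RNA with 7 randomized nucleotides, its flanks annealed to DNA oligonucleotides, across increasing protein concentrations. Free RNA was separated by 8% native PAGE, excised, reverse-transcribed, PCR-barcoded and sequenced on an Illumina HiSeq 2500. Relative association constants came from read-count changes of each variant against the control reaction, normalised to the cognate motif.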", "values": [{"binder": "B1", "binding signal": "0.141 KA relative to UGCAUGU"}, {"binder": "B2", "binding signal": "0.0907 KA relative to UGCAUGU"}, {"binder": "B3", "binding signal": "0.121 KA relative to UGCAUGU"}, {"binder": "B4", "binding signal": "0.128 KA relative to UGCAUGU"}, {"binder": "B5", "binding signal": "0.0742 KA relative to UGCAUGU"}, {"binder": "B6", "binding signal": "0.05 KA relative to UGCAUGU"}, {"binder": "B7", "binding signal": "0.14 KA relative to UGCAUGU"}, {"binder": "B8", "binding signal": "0.124 KA relative to UGCAUGU"}, {"binder": "B9", "binding signal": "0.0833 KA relative to UGCAUGU"}, {"binder": "B10", "binding signal": "0.0963 KA relative to UGCAUGU"}, {"binder": "B11", "binding signal": "0.103 KA relative to UGCAUGU"}, {"binder": "B12", "binding signal": "0.128 KA relative to UGCAUGU"}, {"binder": "B13", "binding signal": "0.177 KA relative to UGCAUGU"}, {"binder": "B14", "binding signal": "0.102 KA relative to UGCAUGU"}, {"binder": "B15", "binding signal": "0.0911 KA relative to UGCAUGU"}, {"binder": "B16", "binding signal": "0.0871 KA relative to UGCAUGU"}, {"binder": "B17", "binding signal": "0.149 KA relative to UGCAUGU"}, {"binder": "B18", "binding signal": "0.109 KA relative to UGCAUGU"}, {"binder": "B19", "binding signal": "0.123 KA relative to UGCAUGU"}, {"binder": "B20", "binding signal": "0.0939 KA relative to UGCAUGU"}, {"binder": "B21", "binding signal": "0.0718 KA relative to UGCAUGU"}, {"binder": "B22", "binding signal": "0.108 KA relative to UGCAUGU"}, {"binder": "B23", "binding signal": "0.0689 KA relative to UGCAUGU"}, {"binder": "B24", "binding signal": "0.128 KA relative to UGCAUGU"}, {"binder": "B25", "binding signal": "0.0933 KA relative to UGCAUGU"}, {"binder": "B26", "binding signal": "0.13 KA relative to UGCAUGU"}, {"binder": "B27", "binding signal": "0.0853 KA relative to UGCAUGU"}, {"binder": "B28", "binding signal": "0.0999 KA relative to UGCAUGU"}, {"binder": "B29", "binding signal": "0.104 KA relative to UGCAUGU"}, {"binder": "B30", "binding signal": "0.159 KA relative to UGCAUGU"}, {"binder": "B31", "binding signal": "0.144 KA relative to UGCAUGU"}]}]}
